Test results as given in PubChem BioAssay AID1347043 (National Center for Advancing Translational Sciences (NCATS), 2019).
Screen size: about 76,000 compounds; about 1,900 (2.5%) were called active. This list was built around the results that the source calls inconclusive (neither active nor inactive); the mix of calls is not that of the screen. Calls come from the whole dose curve; as a rule, active = well fitted inhibition curve with a large enough effect; inconclusive = small, poorly fitted or top-dose-only effect; inactive = flat fitted curve, though single readings scatter. Potencies beside an inconclusive call are fits to weak or partial responses and may not hold up.

What follows are compounds tested against Luciferin 4-monooxygenase (Photinus pyralis) (UniProt P08659) (assay: Firefly luciferase inhibition profiling of diverse chemical library using quantitative high-throughput screening). Conditions: purified P. pyralis luciferase, luminescence, biochemical; activity change, negative = inhibition: at 115 µM (top of the series) unless noted.
In short: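 Cell-free enzyme assay, 10nM P. pyralis luciferase, luciferin and ATP each at 10uM. Inhibition profiled over a 6-point titration, read as luminescence.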
% is set by controls: 0 for no effect and ±100 for the full control effect; potency is the fitted concentration of half-maximal effect; tags give direction and shape of the fitted curve.
Note: nearly all actives have a fitted effect of over 65% in size.

Sequence of UniProt P08659 (P08659 whole entry, looked up): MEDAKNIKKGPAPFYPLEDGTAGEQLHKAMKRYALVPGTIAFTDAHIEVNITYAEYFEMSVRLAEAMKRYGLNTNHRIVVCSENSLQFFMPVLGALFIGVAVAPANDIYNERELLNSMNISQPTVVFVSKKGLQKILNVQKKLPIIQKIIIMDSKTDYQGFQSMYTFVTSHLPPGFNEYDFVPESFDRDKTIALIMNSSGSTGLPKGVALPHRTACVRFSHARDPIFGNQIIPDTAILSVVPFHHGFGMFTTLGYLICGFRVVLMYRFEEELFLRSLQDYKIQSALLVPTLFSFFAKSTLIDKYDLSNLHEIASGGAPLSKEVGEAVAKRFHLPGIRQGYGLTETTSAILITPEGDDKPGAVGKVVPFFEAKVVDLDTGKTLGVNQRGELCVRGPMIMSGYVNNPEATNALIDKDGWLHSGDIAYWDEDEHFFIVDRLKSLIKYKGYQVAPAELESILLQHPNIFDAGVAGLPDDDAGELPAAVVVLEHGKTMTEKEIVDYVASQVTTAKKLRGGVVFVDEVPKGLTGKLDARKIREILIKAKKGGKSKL

**Q.** How did the Potency turn out when CSCCNC(=O)c1nc2sccn2c1Br was run?
**A.** inconclusive: 56.2 µM [inhibitor, partial curve]

**Q.** For O=C1COc2ccc(Nc3ccccc3)nc2CN1CCOc1ccccc1, which Potency is on record?
**A.** inconclusive: 70.8 µM [inhibitor, partial curve]

**Q.** O=C(NCc1nnc2ccc(-c3ccccc3)nn12)c1cc2ccccc2[nH]1 was tested. Which Potency did it give?
**A.** inconclusive: 12.6 µM [inhibitor, full curve]

**Q.** How did the Potency turn out when O=C(c1ccoc1)N1CCC(n2cc(-c3nc(-c4ccccc4)no3)nn2)C1 (stereo not given) was run?
**A.** inconclusive: 56.2 µM [inhibitor, partial curve, poor fit]

**Q.** With O=c1c2nc(Nc3ccc(C(F)(F)F)cc3)ccc2ncn1C1CC1 as the compound, how does the Potency read?
**A.** active: 63.1 µM

**Q.** How did the Potency turn out when COc1ccc(-c2ccc3c(c2)C(=O)N2CC[C@H](NC(=O)NC(C)C)[C@H]2C(=O)N3)c(OC)c1 was run?
**A.** inconclusive: 50.1 µM [inhibitor, partial curve]

**Q.** N#Cc1cccc(-c2cn3c(n2)N(C(=O)c2ccccc2)CCC3)c1 was tested. Which Potency did it give?
**A.** inconclusive: 44.7 µM [inhibitor, partial curve]

**Q.** Which Potency does the source give for COc1ccc(NC(=O)O[C@@H]2CO[C@H]3[C@@H]2OC[C@@H]3n2nnnc2SCc2ccco2)cc1 here?
**A.** inconclusive: 79.4 µM [inhibitor, single point]

**Q.** Which Potency does the source give for O=C(c1ccc(-c2ccc(N3CCSCC3)nc2)cc1)N1CCCCC1 here?
**A.** inconclusive: 39.8 µM [inhibitor, partial curve]

**Q.** Which Potency does the source give for CCN1CCN(CC(=O)NCc2ccc3[nH]c(-c4ccc(F)cc4)c(C)c3c2)CC1 here?
**A.** inconclusive: 50.1 µM [inhibitor, partial curve, poor fit]

**Q.** With O=C(C[C@@H]1CCNC[C@@H]1Cc1cc(CSc2ccccc2)on1)NC1CC1 as the compound, how does the “activity change, negative = inhibition” value read?
**A.** inactive: -2.69% [at 172 µM]

**Q.** How did the Potency turn out when Cc1ccc(C2Cn3nnc(C(=O)N4CCC(C(=O)NCCCc5ccccc5)CC4)c3CO2)cc1 (stereo not given) was run?
**A.** inconclusive: 44.7 µM [inhibitor, partial curve]

**Q.** How did the Potency turn out when COc1cccc(C(=O)NCCC2CCN(C(=O)Nc3ccc(C)cc3)CC2)c1 was run?
**A.** inconclusive: 44.7 µM [inhibitor, partial curve]

**Q.** For CN(C)c1ccc(CN2Cc3[nH]cnc3C[C@H]2c2nc(-c3ccccc3)no2)cc1, which Potency is on record?
**A.** active: 39.8 µM

**Q.** How did the Potency turn out when O=C(CN1C(=O)NC(c2ccc(Cl)cc2)C2=C1COC2=O)Nc1cccc(Br)c1 (stereo not given) was run?
**A.** inconclusive: 35.5 µM [inhibitor, partial curve, poor fit]

**Q.** With COC[C@@H]1CCCN1Cc1cc2ccc(C)cc2nc1-c1ccc(OC)cc1 as the compound, how does the Potency read?
**A.** inconclusive: 50.1 µM [inhibitor, partial curve, poor fit]

**Q.** How did the Potency turn out when O=[N+]([O-])c1ccccc1CN1C[C@H](O)C[C@H]1c1nc(Cc2ccc(F)cc2Cl)no1 was run?
**A.** inconclusive: 126 µM [inhibitor, partial curve, poor fit]

**Q.** With O=C(Nc1cnc(-c2ccc(Cl)cc2)nc1)c1cccs1 as the compound, how does the Potency read?
**A.** inconclusive: 3.98 µM [inhibitor, full curve]

**Q.** O=C(NCc1ccc(F)cc1)Nc1cccc(-c2ccc(N3CCOCC3)nn2)c1 was tested. Which Potency did it give?
**A.** active: 1.26 µM

**Q.** CSc1cccc(NC(=O)C2CCN(C(=O)c3ncn4c3COC(c3ccc(F)cc3)C4)CC2)c1 (stereo not given) was tested. Which Potency did it give?
**A.** inconclusive: 39.8 µM [inhibitor, partial curve]

**Q.** Which Potency does the source give for COc1ccc(CNC(=O)c2cc3c(s2)CCN(C(C)=O)C3)cc1 here?
**A.** inconclusive: 56.2 µM [inhibitor, partial curve]

**Q.** For CN(Cc1cnn(-c2ccc(F)cc2)c1)C(=O)c1cn(Cc2cccc3ccccc23)nn1, which Potency is on record?
**A.** inconclusive: 50.1 µM [inhibitor, partial curve]

**Q.** With Cn1cc(CN2C[C@H](O)C[C@H]2c2nc(-c3cccc([N+](=O)[O-])c3)no2)c2ccccc21 as the compound, how does the Potency read?
**A.** inconclusive: 112 µM [inhibitor, partial curve]

**Q.** With COc1cccc(-c2ccc(N3CCCCCC3)nn2)c1OC as the compound, how does the Potency read?
**A.** inconclusive: 8.91 µM [inhibitor, full curve, poor fit]

**Q.** Which “activity change, negative = inhibition” value does the source give for CCS(=O)(=O)N(C1CC1)C1CCOC2(CCN(C(=O)c3ccccc3OC)CC2)C1 (stereo not given) here?
**A.** inactive: -0.89%

**Q.** With Cc1ccccc1-n1ncc(C(C)NC(=O)c2ccsc2)c1C (stereo not given) as the compound, how does the Potency read?
**A.** inconclusive: 50.1 µM [inhibitor, partial curve]

**Q.** For O=C(NC1CCN(c2cc(-c3cccs3)[nH]n2)CC1)c1ccc(F)cc1Cl, which Potency is on record?
**A.** inconclusive: 50.1 µM [inhibitor, partial curve]

**Q.** Which Potency does the source give for CC(=O)c1cccc(NC(=O)O[C@@H]2CO[C@H]3[C@@H]2OC[C@@H]3Nc2nccc(-c3cccc(F)c3)n2)c1 here?
**A.** inconclusive: 50.1 µM [inhibitor, partial curve]

**Q.** With CC(=O)Nc1cccc(C(=O)NC2CCCN(c3cc(-c4ccc(Cl)cc4)[nH]n3)C2)c1 (stereo not given) as the compound, how does the Potency read?
**A.** active: 31.6 µM

**Q.** O=C(NCCc1ccccn1)c1nc(-c2ccccc2)cc2[nH]ccc12 was tested. Which Potency did it give?
**A.** inconclusive: 70.8 µM [inhibitor, partial curve]

**Q.** CCCCc1nn(CC(=O)N2CCCC2c2nc(C3CC3)no2)c(=O)n1CC (stereo not given) was tested. Which “activity change, negative = inhibition” value did it give?
**A.** inactive: 0%

**Q.** Cc1ccc(-c2cc3c(=O)n(CCNC(=O)Cc4ccccc4Cl)ccn3n2)c(C)c1 was tested. Which Potency did it give?
**A.** active: 2.51 µM

**Q.** Which “activity change, negative = inhibition” value does the source give for O=C(CN1CCCc2nc(-c3ccccc3)ncc2C1=O)NCCc1c[nH]c2ccccc12 here?
**A.** inactive: -7.69%

**Q.** Which Potency does the source give for Cc1ccc(OCc2nc(C3CN(C(=O)c4n[nH]c5ccccc45)C3)no2)cc1 here?
**A.** active: 8.91 µM

**Q.** CC1(C)CN(C(=O)c2ccc(Oc3ccccc3)o2)CC1(C)O (stereo not given) was tested. Which Potency did it give?
**A.** inconclusive: 79.4 µM [inhibitor, partial curve, poor fit]

**Q.** With CCOc1ccccc1CN1CCC2(CCN(C(=O)Cc3ccccn3)CC2)Oc2ccccc21 as the compound, how does the Potency read?
**A.** inactive

**Q.** Which Potency does the source give for COc1cccc(CC(=O)NCCC2CCN(C(=O)Nc3ccc(C)cc3)CC2)c1 here?
**A.** inconclusive: 44.7 µM [inhibitor, partial curve]

**Q.** Which “activity change, negative = inhibition” value does the source give for CN(C)c1cccc(C(=O)N2CCC3(CC2)N=C(c2cccc(Br)c2)NO3)c1 here?
**A.** inactive: -9.72%

**Q.** For CC(Cc1ccncc1)Nc1nccc(-c2cnn(-c3ccccc3)c2)n1 (stereo not given), which Potency is on record?
**A.** inconclusive: 39.8 µM [inhibitor, partial curve]

**Q.** How did the Potency turn out when Cc1ccc(NC(=O)Nc2ccc(C)n(CC(=O)NC(C)(C)C)c2=O)cc1 was run?
**A.** active: 3.98 µM
